For 31 molecules, binding signal results are on record in article PMC9911399, “Two distinct binding modes provide the RNA-binding protein RbFox with extraordinary sequence specificity”.

To fix the notation:
T1: RBFOX1 RRM RbFoxmut (Fox-RRM*) (Homo sapiens, UniProt Q9NWB1 109-208, R118D;E147R;N151S;E152T)
T1 sequence: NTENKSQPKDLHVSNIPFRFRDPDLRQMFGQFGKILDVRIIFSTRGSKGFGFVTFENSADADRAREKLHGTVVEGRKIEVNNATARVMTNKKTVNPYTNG

B1: AUCAUAU (DNA:RNA)
RNA: GGGAGACCGGAAUUCAGAUUGUCCAUCAUAUUUAAAUCCCGUCGUAGCCACCA
DNA 1: CAATCTGAATTCCGGTCTCCC
DNA 2: TGGTGGCTACGACGGGATT
B2: ACAUCAU (DNA:RNA)
RNA: B1 RNA with U26C, C27A, A28U, U29C
DNA 1: CAATCTGAATTCCGGTCTCCC
DNA 2: TGGTGGCTACGACGGGATT
B3: CUCCACU (DNA:RNA)
RNA: B1 RNA with A25C, A28C, U29A, A30C
DNA 1: CAATCTGAATTCCGGTCTCCC
DNA 2: TGGTGGCTACGACGGGATT
B4: GCCAUGU (DNA:RNA)
RNA: B1 RNA with A25G, U26C, A30G
DNA 1: CAATCTGAATTCCGGTCTCCC
DNA 2: TGGTGGCTACGACGGGATT
B5: GGUACGU (DNA:RNA)
RNA: B1 RNA with A25G, U26G, C27U, U29C, A30G
DNA 1: CAATCTGAATTCCGGTCTCCC
DNA 2: TGGTGGCTACGACGGGATT
B6: GUGAAUU (DNA:RNA)
RNA: B1 RNA with A25G, C27G, U29A, A30U
DNA 1: CAATCTGAATTCCGGTCTCCC
DNA 2: TGGTGGCTACGACGGGATT
B7: CGUAUUC (DNA:RNA)
RNA: B1 RNA with A25C, U26G, C27U, A30U, U31C
DNA 1: CAATCTGAATTCCGGTCTCCC
DNA 2: TGGTGGCTACGACGGGATT
B8: GGUCGAG (DNA:RNA)
RNA: B1 RNA with A25G, U26G, C27U, A28C, U29G, U31G
DNA 1: CAATCTGAATTCCGGTCTCCC
DNA 2: TGGTGGCTACGACGGGATT
B9: GCCCGAU (DNA:RNA)
RNA: B1 RNA with A25G, U26C, A28C, U29G
DNA 1: CAATCTGAATTCCGGTCTCCC
DNA 2: TGGTGGCTACGACGGGATT
B10: AUAUCUU (DNA:RNA)
RNA: B1 RNA with C27A, A28U, U29C, A30U
DNA 1: CAATCTGAATTCCGGTCTCCC
DNA 2: TGGTGGCTACGACGGGATT
B11: GUACUGG (DNA:RNA)
RNA: B1 RNA with A25G, C27A, A28C, A30G, U31G
DNA 1: CAATCTGAATTCCGGTCTCCC
DNA 2: TGGTGGCTACGACGGGATT
B12: UACUACG (DNA:RNA)
RNA: B1 RNA with A25U, U26A, A28U, U29A, A30C, U31G
DNA 1: CAATCTGAATTCCGGTCTCCC
DNA 2: TGGTGGCTACGACGGGATT
B13: UCAACUU (DNA:RNA)
RNA: B1 RNA with A25U, U26C, C27A, U29C, A30U
DNA 1: CAATCTGAATTCCGGTCTCCC
DNA 2: TGGTGGCTACGACGGGATT
B14: UUCCCGU (DNA:RNA)
RNA: B1 RNA with A25U, A28C, U29C, A30G
DNA 1: CAATCTGAATTCCGGTCTCCC
DNA 2: TGGTGGCTACGACGGGATT
B15: UUUCUUA (DNA:RNA)
RNA: B1 RNA with A25U, C27U, A28C, A30U, U31A
DNA 1: CAATCTGAATTCCGGTCTCCC
DNA 2: TGGTGGCTACGACGGGATT
B16: UAUUAUG (DNA:RNA)
RNA: GGGAGACCGGAAUUCAGAUUGUCCUAUUAUGUUAAAUCCCGUCGUAGCCACCA
DNA 1: CAATCTGAATTCCGGTCTCCC
DNA 2: TGGTGGCTACGACGGGATT
B17: GUUUGAG (DNA:RNA)
RNA: B16 RNA with U25G, A26U, A29G, U30A
DNA 1: CAATCTGAATTCCGGTCTCCC
DNA 2: TGGTGGCTACGACGGGATT
B18: CGUUAGC (DNA:RNA)
RNA: B16 RNA with U25C, A26G, U30G, G31C
DNA 1: CAATCTGAATTCCGGTCTCCC
DNA 2: TGGTGGCTACGACGGGATT
B19: GACCAAA (DNA:RNA)
RNA: B1 RNA with A25G, U26A, A28C, U29A, U31A
DNA 1: CAATCTGAATTCCGGTCTCCC
DNA 2: TGGTGGCTACGACGGGATT
B20: GCUAUUA (DNA:RNA)
RNA: B1 RNA with A25G, U26C, C27U, A30U, U31A
DNA 1: CAATCTGAATTCCGGTCTCCC
DNA 2: TGGTGGCTACGACGGGATT
B21: CCGGUCA (DNA:RNA)
RNA: B1 RNA with A25C, U26C, C27G, A28G, A30C, U31A
DNA 1: CAATCTGAATTCCGGTCTCCC
DNA 2: TGGTGGCTACGACGGGATT
B22: CCUGCAG (DNA:RNA)
RNA: B16 RNA with U25C, A26C, U28G, A29C, U30A
DNA 1: CAATCTGAATTCCGGTCTCCC
DNA 2: TGGTGGCTACGACGGGATT
B23: UCGUUCG (DNA:RNA)
RNA: B16 RNA with A26C, U27G, A29U, U30C
DNA 1: CAATCTGAATTCCGGTCTCCC
DNA 2: TGGTGGCTACGACGGGATT
B24: CAAAGGG (DNA:RNA)
RNA: B16 RNA with U25C, U27A, U28A, A29G, U30G
DNA 1: CAATCTGAATTCCGGTCTCCC
DNA 2: TGGTGGCTACGACGGGATT
B25: GACGGCG (DNA:RNA)
RNA: B16 RNA with U25G, U27C, U28G, A29G, U30C
DNA 1: CAATCTGAATTCCGGTCTCCC
DNA 2: TGGTGGCTACGACGGGATT
B26: CUAAUGG (DNA:RNA)
RNA: B1 RNA with A25C, C27A, A30G, U31G
DNA 1: CAATCTGAATTCCGGTCTCCC
DNA 2: TGGTGGCTACGACGGGATT
B27: UCCACGG (DNA:RNA)
RNA: B1 RNA with A25U, U26C, U29C, A30G, U31G
DNA 1: CAATCTGAATTCCGGTCTCCC
DNA 2: TGGTGGCTACGACGGGATT
B28: UGCAUGG (DNA:RNA)
RNA: B1 RNA with A25U, U26G, A30G, U31G
DNA 1: CAATCTGAATTCCGGTCTCCC
DNA 2: TGGTGGCTACGACGGGATT
B29: AGUACGA (DNA:RNA)
RNA: B1 RNA with U26G, C27U, U29C, A30G, U31A
DNA 1: CAATCTGAATTCCGGTCTCCC
DNA 2: TGGTGGCTACGACGGGATT
B30: UAUCGUG (DNA:RNA)
RNA: B16 RNA with U28C, A29G
DNA 1: CAATCTGAATTCCGGTCTCCC
DNA 2: TGGTGGCTACGACGGGATT
B31: UUAUAGG (DNA:RNA)
RNA: B16 RNA with A26U, U27A, U30G
DNA 1: CAATCTGAATTCCGGTCTCCC
DNA 2: TGGTGGCTACGACGGGATT

Positions count from the first letter of the chain named. The list shows a part of the results.

The assay addresses T1, RBFOX1 RRM RbFoxmut (Fox-RRM*). The assay can be described thus: EMSA; HiTS-Eq, 1 nM pool, 10 min; buffer printed only for the single-RNA assays: 10 mM Tris pH 7.5, 150 mM NaCl, 3.4 mM EDTA, 0.001% NP-40, 30 C. Particulars: tags: His6 N-terminal (pET28a); label: 5' 32P. The essentials:
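These values rest on relative association constants, computed from read-count changes of each RNA species versus the control reaction and normalised to the cognate motif. Reads came from free RNA recovered by 8% native PAGE after purified RbFox RRM (wild type or mutant) at increasing concentrations was equilibrated for 10 min in 50 µL with 1 nM of a 5′-radiolabelled pool with 7 randomized nucleotides and DNA-annealed flanks.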
For B1, the binding signal is 0.111 KA relative to UGCAUGU. The value for B2 was 0.104 KA relative to UGCAUGU. The value for B3 was 0.0815 KA relative to UGCAUGU; that for B4 was 0.188 KA relative to UGCAUGU; that for B5 was 0.243 KA relative to UGCAUGU.

On to B6, for which the binding signal was 0.118 KA relative to UGCAUGU. Regarding B7, the binding signal was 0.101 KA relative to UGCAUGU. Regarding B8, the binding signal was 0.103 KA relative to UGCAUGU.

For the molecule B9, the binding signal is 0.0816 KA relative to UGCAUGU. For B10, the binding signal is 0.0976 KA relative to UGCAUGU. The value for B11 was 0.0747 KA relative to UGCAUGU; that for B12 was 0.101 KA relative to UGCAUGU. Next, B13: 0.0738 KA relative to UGCAUGU; B14: 0.0646 KA relative to UGCAUGU; B15: 0.0979 KA relative to UGCAUGU.

As for B16, the binding signal was 0.158 KA relative to UGCAUGU. The value for B17 was 0.233 KA relative to UGCAUGU; that for B18 was 0.134 KA relative to UGCAUGU. For B19, the binding signal was 0.086 KA relative to UGCAUGU. Next, B20: 0.113 KA relative to UGCAUGU; B21: 0.0703 KA relative to UGCAUGU.

On to B22, for which the binding signal is 0.105 KA relative to UGCAUGU. The value for B23 was 0.218 KA relative to UGCAUGU; that for B24 was 0.0408 KA relative to UGCAUGU; that for B25 was 0.106 KA relative to UGCAUGU. The value for B26 was 0.0875 KA relative to UGCAUGU. The value for B27 was 0.0669 KA relative to UGCAUGU.

Consider B28, for which the binding signal is 0.935 KA relative to UGCAUGU. The value for B29 was 0.049 KA relative to UGCAUGU. As for B30, the binding signal is 0.121 KA relative to UGCAUGU. Next, B31: 0.0933 KA relative to UGCAUGU.
